Results as given in publication PMC4336329 (PLoS ONE, 2015).
Among all 310,000 compounds or so, about 14,000 (4.5%) showed an effect of 50% or more. Effects have a minus sign here. The list shows a part of the results.

biological target: human ether-à-go-go-related gene (hERG) potassium channel (human, UniProt Q12809); assay: primary screen, population patch clamp on CHO cells stably expressing hERG
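Further: peak tail current of the secondary pulse compared with the same well before compound.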

Chain of human ether-à-go-go-related gene (hERG) potassium channel (Q12809 whole entry, looked up): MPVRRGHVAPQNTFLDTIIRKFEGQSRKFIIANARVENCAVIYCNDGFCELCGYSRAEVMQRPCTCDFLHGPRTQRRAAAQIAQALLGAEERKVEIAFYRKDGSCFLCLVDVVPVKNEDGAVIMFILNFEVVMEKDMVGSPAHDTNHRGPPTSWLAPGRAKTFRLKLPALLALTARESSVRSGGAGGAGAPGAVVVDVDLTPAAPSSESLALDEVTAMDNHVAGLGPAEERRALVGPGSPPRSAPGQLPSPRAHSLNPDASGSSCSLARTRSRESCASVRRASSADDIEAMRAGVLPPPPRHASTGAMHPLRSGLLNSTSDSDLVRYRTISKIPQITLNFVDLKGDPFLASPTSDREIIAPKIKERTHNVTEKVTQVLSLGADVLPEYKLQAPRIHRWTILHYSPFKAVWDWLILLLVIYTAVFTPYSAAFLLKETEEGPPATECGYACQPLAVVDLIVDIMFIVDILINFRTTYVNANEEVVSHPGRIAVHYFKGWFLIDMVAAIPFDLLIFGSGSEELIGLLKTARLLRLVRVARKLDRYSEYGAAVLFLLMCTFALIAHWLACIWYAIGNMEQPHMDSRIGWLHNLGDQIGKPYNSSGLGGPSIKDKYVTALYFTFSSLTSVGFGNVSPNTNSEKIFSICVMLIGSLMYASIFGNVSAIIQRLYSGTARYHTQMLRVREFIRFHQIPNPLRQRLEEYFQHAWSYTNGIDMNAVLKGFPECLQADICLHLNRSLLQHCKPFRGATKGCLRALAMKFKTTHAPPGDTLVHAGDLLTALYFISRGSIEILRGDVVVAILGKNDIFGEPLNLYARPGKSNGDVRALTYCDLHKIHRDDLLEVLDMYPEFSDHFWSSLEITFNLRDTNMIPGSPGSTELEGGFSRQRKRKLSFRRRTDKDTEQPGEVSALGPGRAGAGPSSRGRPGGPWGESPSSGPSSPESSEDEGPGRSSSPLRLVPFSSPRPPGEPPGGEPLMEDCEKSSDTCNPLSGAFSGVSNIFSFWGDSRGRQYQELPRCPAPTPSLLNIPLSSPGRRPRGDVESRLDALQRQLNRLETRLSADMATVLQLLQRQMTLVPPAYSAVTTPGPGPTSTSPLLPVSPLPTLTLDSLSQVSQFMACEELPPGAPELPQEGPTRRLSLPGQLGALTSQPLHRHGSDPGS

SMILES | hERG current change (%, negative = inhibition) at 10uM [%]
CCS(=O)(=O)N1CCC(C(=O)NCc2ccc(F)cc2Cl)CC1 | 10.5
COc1ccc(OC)c2sc(NNC(=O)C3COc4ccccc4O3)nc12 (centres unmarked) | 11.7
COc1ccc(/C=N/NC(=O)CCNc2n[nH]c(=O)[nH]c2=O)c(OC)c1 | 27
COc1ccc(-c2[nH]nc3c2C(c2ccoc2)C(C#N)=C(N)O3)cc1 (centres unmarked) | -5.89
CCc1cccc(NC(=S)N2CCC(c3ccccc3)C2)c1 (centres unmarked) | 8.17
CCCNc1ncnc2nc[nH]c12 | -9.64
C(=N\n1cnnc1)/c1cccnc1 | 1.61
CCOC(=O)C1CCCN(C(=O)c2ccc3c(=O)n(Cc4ccccc4OC)c(=S)[nH]c3c2)C1 (centres unmarked) | 1.81
O=C(CCNC(=O)c1ccccc1Cl)Nc1cccc(C(F)(F)F)c1 | -5.93
COc1ccc2nc(NC(=O)CN(c3ccc(C)cc3)S(=O)(=O)c3c(C)nn(C)c3C)sc2c1 | -21.6
Cc1ccc(-c2csc(NC(=O)c3cccc([N+](=O)[O-])c3C(=O)O)n2)cc1 | 5.68
COC(=O)C1=C(c2cc3ccccc3o2)C[C@@H]2CC[C@H]1N2C(=O)NCc1ccco1 | -4.6
Cc1onc(-c2ccccc2)c1C(=O)Nc1cccc(OC(C)C)c1 | -11.6
CN(C)CCN(C(=O)/C=C/c1cccs1)c1nc2ccc(Br)cc2s1.Cl | 12.7
COc1ccccc1C(=O)Nc1ccccc1N1CCN(S(C)(=O)=O)CC1 | -62
Cc1ccccc1SCC(=O)NNC(=O)c1ccncc1 | -3.16
COc1ccc(/C(C)=N/NC(=O)CNC(=O)c2cccs2)cc1 | 7.66
C=CCNc1nc(-c2cc3ccccc3o2)cs1 | 3.51
Fc1ccc(-c2ccc(/C=N/n3cnnc3)o2)cc1 | -9.01
CCS(=O)(=O)N1CCC(C(=O)N2CCOCC2)CC1 | 12

SMILES | hERG current change (%, negative = inhibition) at 10uM [%]
N#Cc1ccc(OCC(=O)OCC(=O)Nc2ccc(N3CCOCC3)cc2)cc1 | -15.3
C=C(C)[C@H]1CC=C(C)C(=O)C1 | 19
Cc1ccccc1C(O)c1ccccn1 (centres unmarked) | 3.92
CCCCNS(=O)(=O)c1ccc(OCC(=O)N2CCN(Cc3ccc4c(c3)OCO4)CC2)cc1 | -27
N=c1c2c(-c3ccccc3)c(-c3ccccc3)n(Cc3ccco3)c2ncn1CCCN1CCOCC1 | -84.9
OC(CNc1nc2ccccc2s1)c1ccccc1 (centres unmarked) | -5.81
O=C(CSc1ncccn1)n1c2c(c3ccccc31)CCCC2 | -7.25
O=C(NC(=S)NCc1nc2ccccc2[nH]1)c1ccc(F)cc1 | -0.141
N/C(=N\OC(=O)c1cccc2ccccc12)c1cccc([N+](=O)[O-])c1 | 3.63
CC(C)N(C(=O)Cn1c(Cl)nc2ccccc21)C(C)C | 8.7
O=C(CN1C(=O)C2C3C=CC(C3)C2C1=O)NCCc1ccccc1 (centres unmarked) | 10.6
COc1ccc(CCCC(=O)O)c(C)c1 | 25.8
CCCCc1nnc(NC(=O)CCS(=O)(=O)Cc2ccccc2)s1 | 15.2
Cl.O=C(CN1CCCCC1)NCC1(c2ccccc2)CCCC1 | -5.19
CC(=O)N1CCN(S(=O)(=O)c2cccc(C(=O)Nc3ccccc3N3CCOCC3)c2)CC1 | -5.88
Oc1cccc2cnccc12 | 1.3
C/C(O)=c1/ccc2cccc3nc(C)nc1c23 | 7.96
CC(=O)Nc1ccc2nc(SCC(=O)N3CCOCC3)sc2c1 | 18.9
O=C1C=C(c2ccccc2)C[C@@H](c2ccc3c(c2)OCO3)C1 | -4.15
CCN(CC)S(=O)(=O)c1cc(-c2nnc(-c3ccc(Br)cc3)o2)ccc1Cl | -6.62

SMILES | hERG current change (%, negative = inhibition) at 10uM [%]
O=C(COc1ccc(Cl)cc1)NCc1nnc(SCC(=O)NCC2CCCO2)o1 (centres unmarked) | 8.31
COc1ccc(C(C(=O)NCC2CCCO2)N(C(=O)CNC(=O)c2ccco2)c2ccccc2)cc1OC (centres unmarked) | 19.4
COc1ccc(NC(=O)C2CCN(S(C)(=O)=O)CC2)cc1 | 0.57
O=C(O)C(=O)O.O=C(c1cccc(F)c1)N1CCC(N2CCOCC2)CC1 | 11.1
COc1ccc(-c2nc(-c3ccccc3OC)no2)cc1OC | -5.13
COc1ccc(CNC(=O)CN(Cc2ccc(Cl)cc2)C(=O)c2csnn2)cc1 | -71.7
CCOC(=O)Cn1nc(C)c([N+](=O)[O-])c1C | 19.1
Cc1cccn2c(=O)nc(SCC(=O)N3CCC(Cc4ccccc4)CC3)nc12 | -78.9
COc1cc(/C=N/Nc2cccc(C)c2)ccc1OC(=O)c1cccs1 | -12.4
CCn1c(C)nc2cc(NC(=O)Nc3cccc(C(C)=O)c3)ccc21 | -32.9
Cc1ccc(C(=O)Nc2nc(-c3cccnc3)cs2)o1 | -49.2
Cc1ccc(Cn2ccsc2=NC(=O)COC(=O)c2ccc(NC(=O)CC#N)cc2)cc1 | -1.29
COC(=O)C(Cc1ccccc1)NC(=O)CNC(=O)c1ccc(Br)cc1 (centres unmarked) | -29.1
CCOc1ccccc1C1NC(=O)c2ccccc2O1 (centres unmarked) | -1.13
CC(=O)Nc1cc2c(ccc3ccccc32)oc1=O | 17.2
COc1ccc(C2CC(c3ccccc3)=NN2C(=O)COC(=O)c2cccnc2Cl)cc1 (centres unmarked) | 5.03
O=C(NCCc1c[nH]c2ccccc12)c1cnccn1 | 6.99
COC(=O)c1sc(NC(=O)CSc2nnnn2-c2cccc(OC)c2)nc1C | 9.4
CS(=O)(=O)CCC(C(=O)O)N1C(=O)c2ccc(Oc3ccc(Cl)cc3)cc2C1=O (centres unmarked) | 5.78
